{"sequences": {"note": "Chains of the proteins cited; added tags and fusions are not shown.", "UniProt O14939": "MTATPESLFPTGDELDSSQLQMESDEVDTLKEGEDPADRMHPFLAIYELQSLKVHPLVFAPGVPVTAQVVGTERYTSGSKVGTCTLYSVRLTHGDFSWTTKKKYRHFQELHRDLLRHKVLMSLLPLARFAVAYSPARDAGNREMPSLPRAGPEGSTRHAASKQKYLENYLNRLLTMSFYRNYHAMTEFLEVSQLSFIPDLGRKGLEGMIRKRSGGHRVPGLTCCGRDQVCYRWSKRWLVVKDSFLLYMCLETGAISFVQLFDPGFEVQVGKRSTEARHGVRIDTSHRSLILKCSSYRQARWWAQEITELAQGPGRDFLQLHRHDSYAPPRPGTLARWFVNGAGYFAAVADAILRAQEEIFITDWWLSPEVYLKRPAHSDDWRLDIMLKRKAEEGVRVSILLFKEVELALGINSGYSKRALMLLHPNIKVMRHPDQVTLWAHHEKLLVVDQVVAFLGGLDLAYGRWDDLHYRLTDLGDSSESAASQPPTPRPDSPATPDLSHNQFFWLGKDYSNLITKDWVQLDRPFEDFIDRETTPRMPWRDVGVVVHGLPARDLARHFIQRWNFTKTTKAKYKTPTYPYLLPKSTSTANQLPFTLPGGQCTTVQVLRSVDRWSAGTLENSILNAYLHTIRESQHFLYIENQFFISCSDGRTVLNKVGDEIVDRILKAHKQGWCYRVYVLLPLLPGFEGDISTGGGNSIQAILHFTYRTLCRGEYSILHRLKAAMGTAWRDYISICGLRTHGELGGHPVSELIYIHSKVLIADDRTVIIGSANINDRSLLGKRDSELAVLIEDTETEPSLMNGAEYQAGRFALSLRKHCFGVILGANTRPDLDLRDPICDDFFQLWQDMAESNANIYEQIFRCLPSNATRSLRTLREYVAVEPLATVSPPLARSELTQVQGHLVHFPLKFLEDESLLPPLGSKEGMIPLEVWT", "UniProt Q8N6T7": "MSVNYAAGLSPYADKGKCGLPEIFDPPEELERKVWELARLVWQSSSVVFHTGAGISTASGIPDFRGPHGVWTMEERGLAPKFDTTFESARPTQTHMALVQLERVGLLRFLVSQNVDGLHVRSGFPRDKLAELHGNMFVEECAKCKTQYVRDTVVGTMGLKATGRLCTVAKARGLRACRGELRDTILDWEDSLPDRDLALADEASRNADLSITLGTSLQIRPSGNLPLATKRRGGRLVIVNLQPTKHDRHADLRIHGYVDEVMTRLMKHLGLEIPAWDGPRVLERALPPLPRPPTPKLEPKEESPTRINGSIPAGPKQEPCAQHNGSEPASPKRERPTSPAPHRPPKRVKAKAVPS", "UniProt Q9NRC8": "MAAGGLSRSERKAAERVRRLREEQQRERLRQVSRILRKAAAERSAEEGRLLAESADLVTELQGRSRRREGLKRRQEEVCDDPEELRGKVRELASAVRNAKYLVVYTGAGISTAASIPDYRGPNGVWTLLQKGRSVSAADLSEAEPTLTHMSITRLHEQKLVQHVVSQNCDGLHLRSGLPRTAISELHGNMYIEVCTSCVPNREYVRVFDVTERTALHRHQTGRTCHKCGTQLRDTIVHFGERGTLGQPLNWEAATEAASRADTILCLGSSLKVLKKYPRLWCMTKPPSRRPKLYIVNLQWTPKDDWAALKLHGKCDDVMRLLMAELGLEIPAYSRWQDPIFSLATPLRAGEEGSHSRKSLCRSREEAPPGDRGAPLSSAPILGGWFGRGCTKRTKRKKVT", "UniProt Q96EB6": "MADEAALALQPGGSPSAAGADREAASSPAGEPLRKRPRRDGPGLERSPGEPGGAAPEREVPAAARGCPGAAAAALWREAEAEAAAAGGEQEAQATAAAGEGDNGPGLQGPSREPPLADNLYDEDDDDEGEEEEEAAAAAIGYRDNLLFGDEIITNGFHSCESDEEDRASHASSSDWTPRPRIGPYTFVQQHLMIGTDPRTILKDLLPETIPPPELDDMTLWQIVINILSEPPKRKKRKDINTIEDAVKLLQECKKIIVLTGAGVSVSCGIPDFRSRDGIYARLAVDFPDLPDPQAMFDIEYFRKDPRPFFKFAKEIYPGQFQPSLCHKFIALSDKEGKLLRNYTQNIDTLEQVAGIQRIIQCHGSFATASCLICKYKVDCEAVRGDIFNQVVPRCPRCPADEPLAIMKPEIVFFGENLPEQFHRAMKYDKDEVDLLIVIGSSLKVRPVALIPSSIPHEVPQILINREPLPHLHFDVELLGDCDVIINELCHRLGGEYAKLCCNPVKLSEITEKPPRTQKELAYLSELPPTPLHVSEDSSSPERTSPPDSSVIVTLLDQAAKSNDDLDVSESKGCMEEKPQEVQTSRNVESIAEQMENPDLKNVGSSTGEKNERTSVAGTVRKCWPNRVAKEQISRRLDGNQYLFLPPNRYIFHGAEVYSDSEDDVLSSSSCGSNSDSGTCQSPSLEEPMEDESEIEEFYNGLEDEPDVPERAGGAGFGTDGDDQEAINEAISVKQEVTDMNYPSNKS"}, "source": "paper PMC8492672", "molecules": {"B1": {"name": "SIRT2, transfected (enzyme, UniProt Q8IXJ6 1-389)", "chain": "MAEPDPSHPLETQAGKVQEAQDSDSDSEGGAAGGEADMDFLRNLFSQTLSLGSQKERLLDELTLEGVARYMQSERCRRVICLVGAGISTSAGIPDFRSPSTGLYDNLEKYHLPYPEAIFEISYFKKHPEPFFALAKELYPGQFKPTICHYFMRLLKDKGLLLRCYTQNIDTLERIAGLEQEDLVEAHGTFYTSHCVSASCRHEYPLSWMKEKIFSEVTPKCEDCQSLVKPDIVFFGESLPARFFSCMQSDFLKVDLLLVMGTSLQVQPFASLISKAPLSTPRLLINKEKAGQSDPFLGMIMGLGGGMDFDSKKAYRDVAWLGECDQGCLALAELLGWKKELEDLVRREHASIDAQSGAGVPNPSTSASPKKSPPPAKDEARTTEREKPQ"}, "B2": {"name": "SIRT4, transfected (enzyme, UniProt Q9Y6E7 29-314)", "chain": "IGLFVPASPPLDPEKVKELQRFITLSKRLLVMTGAGISTESGIPDYRSEKVGLYARTDRRPIQHGDFVRSAPIRQRYWARNFVGWPQFSSHQPNPAHWALSTWEKLGKLYWLVTQNVDALHTKAGSRRLTELHGCMDRVLCLDCGEQTPRGVLQERFQVLNPTWSAEAHGLAPDGDVFLSEEQVRSFQVPTCVQCGGHLKPDVVFFGDTVNPDKVDFVHKRVKEADSLLVVGSSLQVYSGYRFILTAWEKKLPIAILNIGPTRSDDLACLKLNSRCGELLPLIDPC"}, "B3": {"name": "endogenous PLD1 (enzyme, UniProt Q13393 1-1074)", "chain": "MSLKNEPRVNTSALQKIAADMSNIIENLDTRELHFEGEEVDYDVSPSDPKIQEVYIPFSAIYNTQGFKEPNIQTYLSGCPIKAQVLEVERFTSTTRVPSINLYTIELTHGEFKWQVKRKFKHFQEFHRELLKYKAFIRIPIPTRRHTFRRQNVREEPREMPSLPRSSENMIREEQFLGRRKQLEDYLTKILKMPMYRNYHATTEFLDISQLSFIHDLGPKGIEGMIMKRSGGHRIPGLNCCGQGRACYRWSKRWLIVKDSFLLYMKPDSGAIAFVLLVDKEFKIKVGKKETETKYGIRIDNLSRTLILKCNSYRHARWWGGAIEEFIQKHGTNFLKDHRFGSYAAIQENALAKWYVNAKGYFEDVANAMEEANEEIFITDWWLSPEIFLKRPVVEGNRWRLDCILKRKAQQGVRIFIMLYKEVELALGINSEYTKRTLMRLHPNIKVMRHPDHVSSTVYLWAHHEKLVIIDQSVAFVGGIDLAYGRWDDNEHRLTDVGSVKRVTSGPSLGSLPPAAMESMESLRLKDKNEPVQNLPIQKSIDDVDSKLKGIGKPRKFSKFSLYKQLHRHHLHDADSISSIDSTSSYFNHYRSHHNLIHGLKPHFKLFHPSSESEQGLTRPHADTGSIRSLQTGVGELHGETRFWHGKDYCNFVFKDWVQLDKPFADFIDRYSTPRMPWHDIASAVHGKAARDVARHFIQRWNFTKIMKSKYRSLSYPFLLPKSQTTAHELRYQVPGSVHANVQLLRSAADWSAGIKYHEESIHAAYVHVIENSRHYIYIENQFFISCADDKVVFNKIGDAIAQRILKAHRENQKYRVYVVIPLLPGFEGDISTGGGNALQAIMHFNYRTMCRGENSILGQLKAELGNQWINYISFCGLRTHAELEGNLVTELIYVHSKLLIADDNTVIIGSANINDRSMLGKRDSEMAVIVQDTETVPSVMDGKEYQAGRFARGLRLQCFRVVLGYLDDPSEDIQDPVSDKFFKEVWVSTAARNATIYDKVFRCLPNDEVHNLIQLRDFINKPVLAKEDPIRAEEELKKIRGFLVQFPFYFLSEESLLPSVGTKEAIVPMEVWT"}}, "note": "These are yes or no findings as the source states them, for the method shown. Binding seen in cells or lysates may run through a third protein. Some binding calls cover weakened binding; strength is not graded here.", "data": [{"target": "phospholipase D2 (PLD2), wild type, transfected (human) (UniProt O14939)", "experiment": "co-IP; HEK293 cells cotransfected with PLD2 and SIRT constructs (Fig. 1b, 2a, 2c); lysates immunoprecipitated and immunoblotted with the indicated antibodies", "values": [{"molecule": "SIRT6, transfected (from UniProt Q8N6T7 1-355) (enzyme)", "binding": "no binding"}, {"molecule": "SIRT7, transfected (from UniProt Q9NRC8 1-400) (enzyme)", "binding": "no binding"}, {"molecule": "B1", "binding": "no binding"}, {"molecule": "B2", "binding": "no binding"}]}, {"target": "endogenous SIRT1 (human (endogenous in HCT116, HT29, A549)) (UniProt Q96EB6)", "experiment": "co-IP; endogenous proteins in colorectal cancer cells ('HT119', HT29) and A549 cells; immunoprecipitates captured by anti-SIRT1 and anti-PLD antibodies, nonimmune IgG as control", "values": [{"molecule": "endogenous PLD2 (from UniProt O14939 1-933) (enzyme)", "binding": "binds"}, {"molecule": "B3", "binding": "no binding"}]}]}
